# Read counts are not given, so values of variants with three or more changes are uncertain.
# B1: LINE1-mini (parent)
# chain: GGCAGAGCUCAACACAGCGUGGCAAAGUGGCUGUGGCUAGACUGCC
# Variants of: B1
# Assay: self-cleavage, relative activity (ratio to wild type); higher = more cleavage; in vitro, sequencing; the parent is a self-cleaving ribozyme
row,Variant,self-cleavage
1,GGCUGAGCUCAACACAGCGUGGCAAAGUGUAUGUGGCAAGACUGCC [A4U G30U C31A U38A],0
2,GGCUGAGCUCAACACAGCGUGCCAAAGUUGCUGUGGCUAGACUGCC [A4U G22C G29U],0.03
3,GGCUGAGCUCAACACAGCGUGGCAAAGUGGAUGUGGCUGGACAACC [A4U C31A A39G U43A G44A],0.01
4,GGCUGAGCUCAACACAGCGUUGCAAAGUGGCUGUGGCUAGACUUCC [A4U G21U G44U],0.13
5,GGCUGAACUCAACACAGCGUGGCAAAGUGGUUGUGGCUAGACUGCC [A4U G7A C31U],0.1
6,GGCUCAGCUCAACACAGCGUGGCAAAGUGGCUUUGGCUAGCCUUCC [A4U G5C G33U A41C G44U],0.03
7,GGCUGAUAUCAACACAACGUGCCAAGGUGGCUGUGGCAAGACUGCC [A4U G7U C8A G17A G22C A26G U38A],0.1
8,GGCUGAGCUCAACACAGCGUGGCAAAGUGGCUGUGGCUAGACUAAC [A4U G44A C45A],0.24
9,GGCUAAGCUCAACACAGCGUGGCAAAGUGGCUGUGGAUAGACUGCC [A4U G5A C37A],0.02
10,GGCUGAGCACAACACACCGGGGCAAAGUGGCUGUGGCUAGACUGCC [A4U U9A G17C U20G],0.08
11,GGCUGACCUCAACACAGCGCGGCAAAGUGGCUGUGGCUAGACUGCC [A4U G7C U20C],0.02
12,GGCUGAGCUCAACACAGCAUGGCAAAGCGGCUGUGGCGAGACUGCC [A4U G19A U28C U38G],0.07
13,GGCUGAGCUCAACACAGCGUGGCAAAGUGGCUGUGGCUAGACUUCU [A4U G44U C46U],0.1
14,GGCUGAACUCAACACAGCGUGGCAAAGUGGCCGUGGCUAGACUGUC [A4U G7A U32C C45U],0.18
15,GGCUAAGCUCAACACAGCGUGGCAAAGUGCCUGUGGCUAUAUUGUC [A4U G5A G30C G40U C42U C45U],0.03
16,GGCUGAGCACAACACAGCGUGGCAAUGUGGCUGUGGCUAGACUGCC [A4U U9A A26U],0.07
17,GGCUGAGCUCAACACAGCGUGGCAAAGUGGCUGUGGCUAGAAUGUC [A4U C42A C45U],0.09
18,GGCUGAGCUCAACACAACGUGGGAACGUGGCUGUGGCUAGACUCCC [A4U G17A C23G A26C G44C],0.03
19,GGCUGAGCUCAACACAGCGUAGCAAAAGCGCUGUGGCUAGACAGCC [A4U G21A G27A U28G G29C U43A],0.14

row,Variant,self-cleavage
1,GGCUUAGGCCAACACAGCAUGGUAUAGUGGCUGUGGCUAGACUGCC [A4U G5U C8G U9C G19A C23U A25U],0.05
2,GGCUAAGCACAACACAGCGUGGCUAAGUGGCGGUGGCUAGACUGCA [A4U G5A U9A A24U U32G C46A],0.01
3,GGCUGAGCUCAACACAGCGUGGCAAAGUGGCUGUAGCUAGACUGGC [A4U G35A C45G],0.2
4,GGCUGAGCUCAACACAGCGUGGCAAAGUGGCUGUAGCUAGACUGUC [A4U G35A C45U],0.61
5,GGCUGAGCUCAACACAGCGUACCAUAGUGGCUGUGGCUAGUCUGCC [A4U G21A G22C A25U A41U],0.05
6,GGCUGAGCUCAACACAGCUUGGCAAAGUGGCUGUGGCUCGACUGCC [A4U G19U A39C],0.05
7,GGCUGAGCUCAACACAGCGUUGCAAAGAGGCUGUGGCUAGACUGCC [A4U G21U U28A],0.05
8,GGCUGAACCCAACAAAGCGUGGCAAAGUGGCUGUGGCUAGACAGCC [A4U G7A U9C C15A U43A],0.02
9,GGCUGAGCUCAACACAGCGUGGCAAAGUGGCUCUGGCUAGACCGCC [A4U G33C U43C],0.07
10,GGCUGAGCUCAACACAGCGUCGCAAAGUGGCUGUGUUUAGACUGCC [A4U G21C G36U C37U],0.07
11,GGCUGAGCUCAACACAGCGUCGCAAAGAGGAUGUGGCUCGGCUGCC [A4U G21C U28A C31A A39C A41G],0.04
12,GGCUUUGCUCAACACAGCGUGGCACACUGGCUGUGGCUAGACUGCC [A4U G5U A6U A25C G27C],0.08
13,GGCUGAGCUCAACACAGCGUGGCAAAGUGUCGGUGGCUAGACUGCC [A4U G30U U32G],0.05
14,GGCUGAGCACAAAACAGCGUAGCAAAGUGUCUAUGGCUAGACUGCC [A4U U9A C13A G21A G30U G33A],0.17
15,GGCUUAGCGCAACACAUCGAGGCAAAGGGGCAGUGGCUAGACUGCC [A4U G5U U9G G17U U20A U28G U32A],0.02
16,GGCUCAGCUCAACACAGCCUGGCAAAGUGGCUGUGGCUAGACUGCC [A4U G5C G19C],0.01
17,GGCUAAGCUCAACACAGCGUGGCAAAGUGGCUGUGGCUAGAGUGCC [A4U G5A C42G],0.03
18,GGCUGAGCUCAACACAGCUUGGCAAAGUUGCUGUGGCUAGACUGCC [A4U G19U G29U],0.14
19,GGCUUAGCUAAACACAGCGUGGGAAAGUGACUGUGGCUAGACUGCC [A4U G5U C10A C23G G30A],0.01

row,Variant,self-cleavage
1,GGCUGAUCUCAACACAGCGUGGCGAAGUGGCUGUGGCUAGCCUGCC [A4U G7U A24G A41C],0.35
2,GGCUAAGCUCAACACAGCGUUGCAAAGUGGCUGUGGCUAGACUGCC [A4U G5A G21U],0.05
3,GGCUGACCUCAACACGGCUUGGCACAGUGGCUGUGGCUAGUCUGCC [A4U G7C A16G G19U A25C A41U],0.05
4,GGCUGAGCUCAACACAGCGUGGCAAAGUGGAUGUGGCUCGACAGCC [A4U C31A A39C U43A],0.02
5,GGCUGAACUCAACACAGCGUGACAAAGUGGCUGUGGCUAGACUGCC [A4U G7A G22A],0.19
6,GGCUGAGCUCAACACACCGUGUCAAAGUGGCUGUGGCUAGACUGCC [A4U G17C G22U],0.18
7,GGCUGAGCUCAACACAGCGUGGCAAAAUGGCUGUGGCUAGACUUCC [A4U G27A G44U],0.12
8,GGCUGAUCUCAACACAGAGUGGCAAAGUGGCUGUGGCUAGACUGCC [A4U G7U C18A],0.33
9,GGCUGAAUUCAACACAGCGUGGAAAACAUGCUGUGGCUAGACUGCC [A4U G7A C8U C23A G27C U28A G29U],0.04
10,GGCUGAGCUCAACACAUCGUGGCAAAGUGGCUGUGGCUAUACUGCC [A4U G17U G40U],0.32
11,GGCUGAACUCAACACAGCUUGGCAAAGUGGCUGUGGCUGGACUGCC [A4U G7A G19U A39G],0.04
12,GGCUGAGCUCAACACAGCGUGGCAAAGUGGGUGCGGCUAGACUGCC [A4U C31G U34C],0.03
13,GGCUGAGCUCAACACAGCGUGUCAAAGUGGCUGUGGCUAGUCUGCC [A4U G22U A41U],0.52
14,GGCUUAGCUCAACAGAGCGUGUCAAAGUGGCUGUGGCUAGACUGCC [A4U G5U C15G G22U],0.03
15,GGCUCAGCUAAACAAAGCGUGGCAAAGUGGCUGUCGAUAGACUGCC [A4U G5C C10A C15A G35C C37A],0.01
16,GGCUUAGCUUAACACAGCGUGGCAACGUGGCUGUGGCUAGACUGCC [A4U G5U C10U A26C],0.02
17,GGCUUAGCUCAACACAGCGUGGCAAAGUGGCUGUGGCUUCACUACC [A4U G5U A39U G40C G44A],0.1
18,GGCUGAGCUCAACACAGCGUUGCAAAGUGGCUGGGGCUAGAUUGCC [A4U G21U U34G C42U],0.03

# — the RNAGym collection of RNA variant scans (doi:10.7554/elife.90254)
